Assay results from the RNAGym collection of RNA variant scans (doi:10.7554/elife.90254).
The source gives no read counts; variants with many changes may rest on few reads.

B1: OR4K15 (parent)
chain: GUUAACGGUCAUAGGCCAUGGAAACUAGGAGCACCAUUUCGCUGCCAGUGAAGAAAUGAACAAAGAAAAUCUGGGCCAGGCAGGCAUCAAAAGAAAUAGUCUUGCGCUCAACCAGAAAGUCUGUAAUCAUUUUAAGGGUA

Variants of: B1
Assay: self-cleavage, relative activity (ratio to wild type); higher = more cleavage; in vitro, sequencing; the parent is a self-cleaving ribozyme

Row | Variant | self-cleavage
1 | A5C C109U A117G U132C A135G | 0.37
2 | A5G A22G A54C A78C A91U U108A | 0.14
3 | A5G A11G A64G U131C | 1.01
4 | A4G U49G A54G | 0.79
5 | A5G A22G A78G | 0.18
6 | A5G U9A A64G U100C | 1.02
7 | A4G G41U A64G U120C | 0.87
8 | A5G U9C C42U U87A U130C | 1.24
9 | A5U A52G A116G U132C | 1.11
10 | A5G A51G A125G U131C | 0.29
11 | A5G A64C A78C G106A A117U | 0.01
12 | A4U A30G A59G | 0.68
13 | A5G A66G A116G | 0.52
14 | A5U U12C A92G U122C | 1.35
15 | A4U A24G U26A | 1.25
16 | A5G A36U G53U A64G A90G | 1.41
17 | A5G A68G A111G G138C | 0.06
18 | A5G A22G A64G | 1.22
19 | A5G U39C U57A A62G A67G | 0.9
20 | A5G U39C U43A U87G | 0.52
21 | A5G A18G U72A A92G A118G U130C | 0.13

Row | Variant | self-cleavage
22 | A5G U49C A92U | 0.6
23 | A5G A27G A62G A95G | 1.54
24 | A5U C25A U43A A62G A68G | 1.12
25 | A5G A36G A135U | 1.03
26 | A5G A22G A59G | 0.84
27 | A5G A18U A22C A90G A114G | 0.36
28 | A5G A11G A69G U130C | 0.77
29 | A5G A22G U132C | 0.39
30 | A5G U39A A62G A116G | 0.74
31 | A5G A63G U124A | 0.85
32 | A5U A56G A64G A82G | 0.26
33 | A5G A67G A95C | 0.77
34 | A5G A69G U87A G137A | 0.33
35 | A5G C45A G53U U122A A134G | 1.16
36 | A5G U12C A22G A27G C32U A54G | 1.42
37 | A5G A90G U122C | 0
38 | A5G U100A U127C | 0.23
39 | A5G A111G A134G | 0
40 | A5G A13G A66G A92G | 1.31
41 | A5G G44A A51G A52U A66G A140C | 1.12
42 | A5G A117G A126G | 0.47

Row | Variant | self-cleavage
43 | A5G A90G U97C | 0
44 | A5G A24G A63G | 0.71
45 | A4G U100C A110G A117G | 0.36
46 | A5G A24G U43A A96G A117G | 2.37
47 | A5C A33U A60G A78G A94G A98U U130C U132A | 0.31
48 | A5G G7A A52G U97C | 1.17
49 | A5G A11C A23G A86U A126G | 0.86
50 | A5G A69G A82G A94G | 0.49
51 | A5G A55G A68G U127C | 0.61
52 | A5G A11G A66C A69G A82U A94G A96G U122A | 0.08
53 | A5G U57C U132A G137U | 0.81
54 | A5G G8U A62U U130C | 0.47
55 | A5C G7A G14A A23G A59G | 1.5
56 | A5G A68G C85U | 1.28
57 | A5G A11G A51G A110U | 1.99
58 | A5G U26C A98U | 1.21
59 | A5G A62G U100A U127C | 0.1
60 | A4G U19C A52G | 0.42
61 | A5G U43C A110G U124G | 0.09
62 | A4G U43C U100C U124C | 1.23
63 | A5G A114U U133C | 0.21

Row | Variant | self-cleavage
64 | A5G U38C A60G A78U A82U U133C | 0.21
65 | A5U A33U A82U U127C U131C | 0.13
66 | A5G A18G U39A A51U U108A | 0.06
67 | A4G G31A A63U A89G U108C | 0.02
68 | A5G A55G A86G A90G A96G | 1.62
69 | A5U U37C G48A A64G A68G A116C | 0.1
70 | A5U G106A U139C | 0
71 | A4U G7U A30U A36U A90G U130C | 0.9
72 | A5G A67G G75C A126G | 0.19
73 | A5G G14A A30G C101U | 0.4
74 | A5G A69C A86U A140U | 1.34
75 | A5G C32U A33G | 1.39
76 | A5G U38C U122C | 0.53
77 | A5G A36U U57C | 0.44
78 | A5G A66U U130C | 0.44
79 | A4G U19C A22G U37C A94G U100C U139C | 1.5
80 | A5G G75U A78U A116G | 0.08
81 | A4U U9C U12C U124A | 0.93
82 | A5C U38C A54G G83A U97C | 1.65
83 | A5U A52G U122C | 1.04
84 | A5U A33U A82G A111G U120C | 0.02
